Data: PubChem BioAssay AID1832 (Broad Institute, 2009)
In all, about 300,000 compounds went through this assay and about 1,100 (0.37%) were called active. The inconclusive results got no clear call from the source; some entries with a clear call stand among them for comparison.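 How the source made its calls: active means inhibition past about -25% in most replicates, and total fluorescence under double the plate's negative control median (limit read from the data); inconclusive means replicates evenly split on the limit, or fluorescence at least double controls; inactive means too little inhibition in most replicates.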

Biological target: Zinc finger protein mex-5 (Caenorhabditis elegans) (UniProt Q9XUB2)
Experiment: MEX-5 zinc finger RNA-binding disruptors – biochemical, C. elegans, fluorescence polarization, MLPCN library, primary screen (AID 1832);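 further: 0% = DMSO and -100% = 5 µM competing unlabeled TCR2 RNA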
Details: MEX-5/FITC-TCR2 RNA binding, at 10 µM, active compounds read low

Sequence of UniProt Q9XUB2 (Q9XUB2 whole entry, looked up): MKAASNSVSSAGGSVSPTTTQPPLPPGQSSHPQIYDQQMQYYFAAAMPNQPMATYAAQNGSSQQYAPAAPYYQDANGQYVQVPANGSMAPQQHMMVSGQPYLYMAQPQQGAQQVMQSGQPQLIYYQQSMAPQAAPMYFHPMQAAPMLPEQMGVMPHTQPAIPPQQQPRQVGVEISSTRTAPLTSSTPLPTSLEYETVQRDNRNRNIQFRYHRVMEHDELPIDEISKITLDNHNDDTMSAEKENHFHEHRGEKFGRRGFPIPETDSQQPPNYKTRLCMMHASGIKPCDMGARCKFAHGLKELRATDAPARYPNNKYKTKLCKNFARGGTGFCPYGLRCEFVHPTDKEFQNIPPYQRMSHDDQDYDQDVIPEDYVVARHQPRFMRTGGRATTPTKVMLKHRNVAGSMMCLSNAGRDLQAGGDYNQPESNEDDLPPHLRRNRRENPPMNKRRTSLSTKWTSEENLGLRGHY

SMILES | activity score (negative = inhibition of binding)
O=CN/N=C/c1c(O)ccc2ccccc12 | inconclusive: -25.3%
O=C(O)c1ccccc1NS(=O)(=O)c1cccc(-n2sc3ccccc3c2=O)c1 | active: -49.9%
CCc1ccc(/C=C2/SC(=S)N(CCC(=O)Nc3cccnc3)C2=O)cc1 | inconclusive: -19.8%
O=C(CCN1C(=O)/C(=C\C=C\c2ccccc2)SC1=S)Nc1ccc(C(=O)O)cc1 | inconclusive: -20%
N=c1c(S(=O)(=O)c2ccc(Cl)cc2)cc2c(=O)n3ccccc3nc2n1CCc1ccccc1 | active: -63%
COc1ccc(CCn2c(=N)c(S(=O)(=O)c3ccc(C)cc3)cc3c(=O)n4ccccc4nc32)cc1 | inconclusive: -96.9% [fluorescent]
CC(C)(C)c1ccc(OCc2ccc(C(=O)Nc3cccnc3)o2)cc1 | inconclusive: -12.8%
COc1ccc(C2OC34CCCCC3C(C#N)(C#N)C2(C#N)C(=N)O4)cc1 (configuration not stated) | active: -84.5%
O=C(N/N=C/c1cc(Cl)cc([N+](=O)[O-])c1O)C(O)(c1ccccc1)c1ccccc1 | inconclusive: -23.9%
CCn1c2ccc(F)cc2c2nc3ccccc3nc21 | inactive: -2.19%
CCOC(=O)C1=C(O)/C(=C/N(C)C)N=C1C | inconclusive: -76.1% [fluorescent]
COc1c(OC2OC(C(=O)O)C(O)C(O)C2O)cc(O)c2c(=O)cc(-c3ccccc3)oc12 (configuration not stated) | inactive: -9.87%
Oc1[nH]c2ccccc2c1N=Nc1ccccc1F | inconclusive: -67.7% [fluorescent]
Cc1ccc(NC(=O)/C(C#N)=C(\N)C(Cl)(Cl)Cl)nc1 | inconclusive: -25%
Nc1ccc2nc3c(=O)n(C4CCCCC4)c(=O)[nH]c3nc2c1 | inconclusive: -69.2% [fluorescent]
CN(C)c1ccc(/C=C2\C(=N)N3N=C(CC(=O)N4CCCCC4)SC3=NC2=O)cc1 | inconclusive: 59.1% [fluorescent]
Cc1cc(OCc2cc(C(=O)N(C)C(C)c3ccccn3)no2)cc(C)c1Cl (configuration not stated) | inactive: 0.598%
COc1ccccc1C(=O)N(CCC1CCCN1C)c1nc2ccccc2s1 (configuration not stated) | inactive: 2.06%
COc1cc2c3nnc(-c4ccc(F)cc4)c-3cn(Cc3ccccc3)c2cc1OC | inconclusive: -99.8% [fluorescent]
COc1cc2c(cc1OC)CN(CC(O)c1ccccc1)CC2 (configuration not stated) | inactive: 4.52%
Cc1ccc(-c2[nH]c3cc(C(N)=O)ccc3c(=O)c2O)cc1 | active: -69.9%
O=C(N/N=C/c1ccc(-c2cccc(C(F)(F)F)c2)o1)c1ccccc1Br | inconclusive: -7.78% [fluorescent]
